Results from the supplement of paper PMC10369915.
The list shows a part of the results. Rule as the data show it: active = 3.2 or more and inactive = the rest. Most of these values are background signal.

Tests used:
Assay in all cases: enrichment score (SH2-bound / input frequency) (ratio); bacterial display of known human phosphotyrosine sites (pTyr-Var adds point mutants) read by sequencing; higher = stronger binding; tyrosines were phosphorylated by kinases first
SHP2 C-SH2 domain E139D = molecular target: SHP2 C-SH2 domain E139D
[1] = molecular target: SHP2 C-SH2 domain wild-type
SHP2 N-SH2 domain L43F = molecular target: SHP2 N-SH2 domain L43F
SHP2 N-SH2 domain T42A = molecular target: SHP2 N-SH2 domain T42A
SHP2 N-SH2 domain T52S = molecular target: SHP2 N-SH2 domain T52S
[2] = molecular target: SHP2 N-SH2 domain wild-type

Measured: enrichment score
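Also: displayed peptides selected on beads carrying the immobilized SH2 domain, with library peptides lacking any tyrosine serving as negative controls.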

TSDEKVDYVQVDKEK [GAB2_HUMAN_643]
inactive: SHP2 C-SH2 domain E139D; peptide library: Human pTyr 1.2 | [1]; peptide library: Human pTyr 1.1 | SHP2 N-SH2 domain L43F; peptide library: Human pTyr 1.22 | SHP2 N-SH2 domain T42A; peptide library: Human pTyr 1.04 | SHP2 N-SH2 domain T52S; peptide library: Human pTyr 1.19 | [2]; peptide library: Human pTyr 1.4

SHDSEENYVPMNPNL [GAB1_HUMAN_589]
inactive: SHP2 C-SH2 domain E139D; peptide library: Human pTyr 0.697 | [1]; peptide library: Human pTyr 0.545 | SHP2 N-SH2 domain L43F; peptide library: Human pTyr 0.543 | SHP2 N-SH2 domain T42A; peptide library: Human pTyr 0.474 | SHP2 N-SH2 domain T52S; peptide library: Human pTyr 0.655 | [2]; peptide library: Human pTyr 0.607

ARSPEDEYELLMPHR [GCSAM_HUMAN_148]
inactive: SHP2 C-SH2 domain E139D; peptide library: Human pTyr 0.716 | [1]; peptide library: Human pTyr 0.701 | SHP2 N-SH2 domain L43F; peptide library: Human pTyr 0.763 | SHP2 N-SH2 domain T42A; peptide library: Human pTyr 0.97 | SHP2 N-SH2 domain T52S; peptide library: Human pTyr 0.791 | [2]; peptide library: Human pTyr 0.617

KGDKQVEYLDLDLDS [GAB1_HUMAN_627]
inactive: SHP2 C-SH2 domain E139D; peptide library: Human pTyr 1.32 | [1]; peptide library: Human pTyr 0.997 | SHP2 N-SH2 domain T52S; peptide library: Human pTyr 2.31 | [2]; peptide library: Human pTyr 1.42
active: SHP2 N-SH2 domain L43F; peptide library: Human pTyr 3.85 | SHP2 N-SH2 domain T42A; peptide library: Human pTyr 5.17

ERLVEIQYELTDRLA [GIT2_HUMAN_224]
inactive: SHP2 C-SH2 domain E139D; peptide library: Human pTyr 1.04 | [1]; peptide library: Human pTyr 0.649 | SHP2 N-SH2 domain L43F; peptide library: Human pTyr 0.843 | SHP2 N-SH2 domain T42A; peptide library: Human pTyr 0.845 | SHP2 N-SH2 domain T52S; peptide library: Human pTyr 0.835 | [2]; peptide library: Human pTyr 0.781

DLDDQHDYDSVASDE [GIT1_HUMAN_383]
inactive: SHP2 C-SH2 domain E139D; peptide library: Human pTyr 1.14 | [1]; peptide library: Human pTyr 1.24 | SHP2 N-SH2 domain L43F; peptide library: Human pTyr 1.12 | SHP2 N-SH2 domain T42A; peptide library: Human pTyr 1.07 | SHP2 N-SH2 domain T52S; peptide library: Human pTyr 1.29 | [2]; peptide library: Human pTyr 1.28

NWGKKYPTCNS [PTPRZ1_Y53]
inactive: SHP2 C-SH2 domain E139D; peptide library: pTyr-Var 1.01 | [1]; peptide library: pTyr-Var 1.26 | SHP2 N-SH2 domain L43F; peptide library: pTyr-Var 1.12 | SHP2 N-SH2 domain T42A; peptide library: pTyr-Var 0.85 | SHP2 N-SH2 domain T52S; peptide library: pTyr-Var 0.825 | [2]; peptide library: pTyr-Var 1.13

ATQDDYVLEVR [PTPRZ1_Y2179]
inactive: SHP2 C-SH2 domain E139D; peptide library: pTyr-Var 0.643 | [1]; peptide library: pTyr-Var 0.624 | SHP2 N-SH2 domain L43F; peptide library: pTyr-Var 0.533 | SHP2 N-SH2 domain T42A; peptide library: pTyr-Var 0.48 | SHP2 N-SH2 domain T52S; peptide library: pTyr-Var 0.669 | [2]; peptide library: pTyr-Var 0.701

ASADLMSYCEEHARS [GBG12_HUMAN_42]
inactive: SHP2 C-SH2 domain E139D; peptide library: Human pTyr 0.821 | [1]; peptide library: Human pTyr 0.897 | SHP2 N-SH2 domain L43F; peptide library: Human pTyr 0.633 | SHP2 N-SH2 domain T42A; peptide library: Human pTyr 0.729 | SHP2 N-SH2 domain T52S; peptide library: Human pTyr 0.791 | [2]; peptide library: Human pTyr 0.925

FFQQQMIYDSPPSRA [GAB1_HUMAN_242]
inactive: SHP2 C-SH2 domain E139D; peptide library: Human pTyr 0.858 | [1]; peptide library: Human pTyr 0.75 | SHP2 N-SH2 domain L43F; peptide library: Human pTyr 0.511 | SHP2 N-SH2 domain T42A; peptide library: Human pTyr 0.664 | SHP2 N-SH2 domain T52S; peptide library: Human pTyr 0.63 | [2]; peptide library: Human pTyr 0.794

LPVHFYSHVEH [PYGM_Y204_G205S]
inactive: SHP2 C-SH2 domain E139D; peptide library: pTyr-Var 1.65 | [1]; peptide library: pTyr-Var 3.1 | SHP2 N-SH2 domain L43F; peptide library: pTyr-Var 1.7 | SHP2 N-SH2 domain T52S; peptide library: pTyr-Var 1.9 | [2]; peptide library: pTyr-Var 1.85
active: SHP2 N-SH2 domain T42A; peptide library: pTyr-Var 3.52

SEELDENYVPMNPNS [GAB1_HUMAN_447]
inactive: SHP2 C-SH2 domain E139D; peptide library: Human pTyr 0.89 | [1]; peptide library: Human pTyr 0.685 | SHP2 N-SH2 domain L43F; peptide library: Human pTyr 0.829 | SHP2 N-SH2 domain T42A; peptide library: Human pTyr 0.928 | SHP2 N-SH2 domain T52S; peptide library: Human pTyr 0.819 | [2]; peptide library: Human pTyr 0.971

ADASSIQYRKAGLPR [GBRB2_HUMAN_441_YA]
inactive: SHP2 C-SH2 domain E139D; peptide library: Human pTyr 0.887 | [1]; peptide library: Human pTyr 0.711 | SHP2 N-SH2 domain L43F; peptide library: Human pTyr 0.867 | SHP2 N-SH2 domain T42A; peptide library: Human pTyr 0.886 | SHP2 N-SH2 domain T52S; peptide library: Human pTyr 1.02 | [2]; peptide library: Human pTyr 0.926

EPIQEANYVPMTPGT [GAB1_HUMAN_472]
inactive: SHP2 C-SH2 domain E139D; peptide library: Human pTyr 0.544 | [1]; peptide library: Human pTyr 0.53 | SHP2 N-SH2 domain L43F; peptide library: Human pTyr 0.531 | SHP2 N-SH2 domain T42A; peptide library: Human pTyr 0.561 | SHP2 N-SH2 domain T52S; peptide library: Human pTyr 0.55 | [2]; peptide library: Human pTyr 0.642

VAFFPNGYAFTTGSD [GBB2_HUMAN_239]
inactive: SHP2 C-SH2 domain E139D; peptide library: Human pTyr 0.813 | [1]; peptide library: Human pTyr 0.915 | SHP2 N-SH2 domain L43F; peptide library: Human pTyr 0.745 | SHP2 N-SH2 domain T42A; peptide library: Human pTyr 0.818 | SHP2 N-SH2 domain T52S; peptide library: Human pTyr 0.826 | [2]; peptide library: Human pTyr 0.721

ASDTDSSYCIPTAGM [GAB1_HUMAN_373]
inactive: SHP2 C-SH2 domain E139D; peptide library: Human pTyr 0.739 | [1]; peptide library: Human pTyr 0.574 | SHP2 N-SH2 domain L43F; peptide library: Human pTyr 0.816 | SHP2 N-SH2 domain T42A; peptide library: Human pTyr 0.799 | SHP2 N-SH2 domain T52S; peptide library: Human pTyr 0.74 | [2]; peptide library: Human pTyr 0.723

VADERVDYVVVDQQK [GAB1_HUMAN_659]
inactive: SHP2 C-SH2 domain E139D; peptide library: Human pTyr 0.809 | [1]; peptide library: Human pTyr 1.08 | SHP2 N-SH2 domain L43F; peptide library: Human pTyr 0.722 | SHP2 N-SH2 domain T42A; peptide library: Human pTyr 0.747 | SHP2 N-SH2 domain T52S; peptide library: Human pTyr 0.603 | [2]; peptide library: Human pTyr 0.626

AARVWQLYIGDTRSR [GNMT_HUMAN_34]
inactive: SHP2 C-SH2 domain E139D; peptide library: Human pTyr 2 | [1]; peptide library: Human pTyr 1.99 | SHP2 N-SH2 domain L43F; peptide library: Human pTyr 1.95 | SHP2 N-SH2 domain T42A; peptide library: Human pTyr 2.05 | SHP2 N-SH2 domain T52S; peptide library: Human pTyr 2.14 | [2]; peptide library: Human pTyr 2.63
